{
  "source": "the supplement of paper PMC8728848",
  "binders": {"B1": {"name": "SGC, Q9M345 (protein)", "chain": "QNLNFTYNGFHPPLTDISLQGLATVTPNGLLKLTNTSVQKTGHAFCTERIRFKDSQNGNVSSFSTTFVFAIHSQIPTLSGHGIAFVVAPTLGLPFALPSQYIGLFNISNNGNDTNHIFAVEFDTIQSSEFGDPNDNHVGIDLNGLRSANYSTAGYRDDHDKFQNLSLISRKRIQVWIDYDNRSHRIDVTVAPFDSDKPRKPLVSYVRDLSSILLEDMYVGFSSATGSVLSEHFLVGWSFRLNGEAPMLSLSKLPKLPRFEPRRIS"}},
  "test_in_all_cases": "glycan array binding signal (z-score within array); higher = stronger binding",
  "details_in_all_cases": "glycan notation: IUPAC condensed, linker removed",
  "key": {"[1]": {"molecular_target": "Gal(b1-3)GlcNAc(b1-3)Gal(b1-4)GlcNAc(b1-2)Man(a1-3)[Gal(b1-3)GlcNAc(b1-3)Gal(b1-4)GlcNAc(b1-2)Man(a1-6)]Man(b1-4)GlcNAc(b1-4)GlcNAc", "outline": "(§1)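 The binding signal is a Z-score computed within each array and averaged over linkers. Arrays of the same protein sequence at different concentrations or buffers were also averaged together. Data originate from 3228 arrays in the Consortium for Functional Glycomics database, kept only where the protein sequence was available.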"}, "[2]": {"molecular_target": "Gal(b1-3)GlcNAc(b1-3)Gal(b1-4)GlcNAc(b1-2)[Gal(b1-3)GlcNAc(b1-3)Gal(b1-4)GlcNAc(b1-6)]Man(a1-6)[Gal(b1-3)GlcNAc(b1-3)Gal(b1-4)GlcNAc(b1-2)Man(a1-3)]Man(b1-4)GlcNAc(b1-4)[Fuc(a1-6)]GlcNAc", "outline": "as §1"}, "[3]": {"molecular_target": "Gal(b1-3)GlcNAc(b1-3)Gal(b1-4)GlcNAc(b1-3)Gal(b1-4)GlcNAc(b1-2)[Gal(b1-3)GlcNAc(b1-3)Gal(b1-4)GlcNAc(b1-3)Gal(b1-4)GlcNAc(b1-6)]Man(a1-6)[Gal(b1-3)GlcNAc(b1-3)Gal(b1-4)GlcNAc(b1-3)Gal(b1-4)GlcNAc(b1-2)Man(a1-3)]Man(b1-4)GlcNAc(b1-4)[Fuc(a1-6)]GlcNAc", "outline": "as §1"}, "[4]": {"molecular_target": "Gal(b1-3)GlcNAc(b1-3)Gal(b1-4)GlcNAc(b1-6)[Gal(b1-3)GlcNAc(b1-3)]Gal(b1-4)Glc", "outline": "as §1"}, "[5]": {"molecular_target": "Gal(b1-3)GlcNAc(b1-3)Gal(b1-4)[Fuc(a1-3)]GlcNAc", "outline": "as §1"}, "[6]": {"molecular_target": "Gal(b1-3)GlcNAc(b1-3)Gal(b1-4)[Fuc(a1-3)]GlcNAc(b1-6)[Gal(b1-3)GlcNAc(b1-3)]Gal(b1-4)Glc", "outline": "as §1"}, "[7]": {"molecular_target": "Gal(b1-3)GlcNAc(b1-3)GalNAc", "outline": "as §1"}, "[8]": {"molecular_target": "Gal(b1-3)GlcNAc(b1-6)Gal(b1-4)GlcNAc", "outline": "as §1"}, "[9]": {"molecular_target": "Gal(b1-3)GlcNAc(b1-6)GalNAc", "outline": "as §1"}, "[10]": {"molecular_target": "Gal(b1-3)GlcNAc(b1-6)[Gal(b1-3)]GalNAc", "outline": "as §1"}, "Gal(b1-3)GlcNAc6S": {"molecular_target": "Gal(b1-3)GlcNAc6S", "outline": "as §1"}, "[11]": {"molecular_target": "Gal(b1-3)[Fuc(a1-4)]GlcNAc", "outline": "as §1"}, "[12]": {"molecular_target": "Gal(b1-3)[Fuc(a1-4)]GlcNAc(b1-2)Man", "outline": "as §1"}, "[13]": {"molecular_target": "Gal(b1-3)[Fuc(a1-4)]GlcNAc(b1-2)Man(a1-3)[Gal(b1-3)[Fuc(a1-4)]GlcNAc(b1-2)Man(a1-6)]Man(b1-4)GlcNAc(b1-4)[Fuc(a1-6)]GlcNAc", "outline": "as §1"}, "[14]": {"molecular_target": "Gal(b1-3)[Fuc(a1-4)]GlcNAc(b1-3)Gal(b1-3)[Fuc(a1-4)]GlcNAc", "outline": "as §1"}, "[15]": {"molecular_target": "Gal(b1-3)[Fuc(a1-4)]GlcNAc(b1-3)Gal(b1-4)[Fuc(a1-3)]GlcNAc", "outline": "as §1"}, "[16]": {"molecular_target": "Gal(b1-3)[Fuc(a1-4)]GlcNAc(b1-6)GalNAc", "outline": "as §1"}, "[17]": {"molecular_target": "Gal(b1-3)[GlcNAc(b1-6)]GalNAc", "outline": "as §1"}, "[18]": {"molecular_target": "Gal(b1-3)[Neu5Ac(a2-6)]GalNAc", "outline": "as §1"}, "[19]": {"molecular_target": "Gal(b1-3)[Neu5Ac(a2-6)]GlcNAc(b1-4)Gal(b1-4)Glc", "outline": "as §1"}, "[20]": {"molecular_target": "Gal(b1-3)[Neu5Ac(b2-6)]GalNAc", "outline": "as §1"}, "Gal(b1-4)Gal": {"molecular_target": "Gal(b1-4)Gal", "outline": "as §1"}, "[21]": {"molecular_target": "Gal(b1-4)GalNAc(a1-3)[Fuc(a1-2)]Gal(b1-4)GlcNAc", "outline": "as §1"}, "[22]": {"molecular_target": "Gal(b1-4)GalNAc(b1-3)[Fuc(a1-2)]Gal(b1-4)GlcNAc", "outline": "as §1"}, "Gal(b1-4)Glc": {"molecular_target": "Gal(b1-4)Glc", "outline": "as §1"}, "Gal(b1-4)Glc6S": {"molecular_target": "Gal(b1-4)Glc6S", "outline": "as §1"}, "Gal(b1-4)GlcNAc": {"molecular_target": "Gal(b1-4)GlcNAc", "outline": "as §1"}, "[23]": {"molecular_target": "Gal(b1-4)GlcNAc(a1-6)Gal(b1-4)GlcNAc", "outline": "as §1"}, "Gal(b1-4)GlcNAc(b1-2)Man": {"molecular_target": "Gal(b1-4)GlcNAc(b1-2)Man", "outline": "as §1"}, "[24]": {"molecular_target": "Gal(b1-4)GlcNAc(b1-2)Man(a1-3)Man(b1-4)GlcNAc(b1-4)GlcNAc", "outline": "as §1"}, "[25]": {"molecular_target": "Gal(b1-4)GlcNAc(b1-2)Man(a1-3)[Gal(b1-4)GlcNAc(b1-2)Man(a1-6)]Man(b1-4)GlcNAc(b1-4)GlcNAc", "outline": "as §1"}, "[26]": {"molecular_target": "Gal(b1-4)GlcNAc(b1-2)Man(a1-3)[Gal(b1-4)GlcNAc(b1-2)Man(a1-6)]Man(b1-4)GlcNAc(b1-4)[Fuc(a1-6)]GlcNAc", "outline": "as §1"}, "[27]": {"molecular_target": "Gal(b1-4)GlcNAc(b1-2)Man(a1-3)[Gal(b1-4)GlcNAc(b1-2)Man(a1-6)][Gal(b1-4)GlcNAc(b1-4)]Man(b1-4)GlcNAc(b1-4)[Fuc(a1-6)]GlcNAc", "outline": "as §1"}, "[28]": {"molecular_target": "Gal(b1-4)GlcNAc(b1-2)Man(a1-3)[Gal(b1-4)GlcNAc(b1-2)Man(a1-6)][GlcNAc(b1-4)]Man(b1-4)GlcNAc(b1-4)[Fuc(a1-6)]GlcNAc", "outline": "as §1"}, "[29]": {"molecular_target": "Gal(b1-4)GlcNAc(b1-2)Man(a1-3)[GlcNAc(b1-2)Man(a1-6)]Man(b1-4)GlcNAc(b1-4)GlcNAc", "outline": "as §1"}, "[30]": {"molecular_target": "Gal(b1-4)GlcNAc(b1-2)Man(a1-3)[GlcNAc(b1-4)][Gal(b1-4)GlcNAc(b1-2)Man(a1-6)]Man(b1-4)GlcNAc(b1-4)GlcNAc", "outline": "as §1"}, "[31]": {"molecular_target": "Gal(b1-4)GlcNAc(b1-2)Man(a1-3)[Man(a1-6)]Man(b1-4)GlcNAc(b1-4)GlcNAc", "outline": "as §1"}, "[32]": {"molecular_target": "Gal(b1-4)GlcNAc(b1-2)Man(a1-6)Man(b1-4)GlcNAc(b1-4)GlcNAc", "outline": "as §1"}},
  "note": "The other results are listed elsewhere or left out.",
  "data": [
    {"binder": "B1", "values": [
      {"measurement": "glycan array binding signal (z-score)", "setting": "[1]", "value": 0.678},
      {"measurement": "glycan array binding signal (z-score)", "setting": "[2]", "value": 5.28},
      {"measurement": "glycan array binding signal (z-score)", "setting": "[3]", "value": 4.72},
      {"measurement": "glycan array binding signal (z-score)", "setting": "[4]", "value": -0.144},
      {"measurement": "glycan array binding signal (z-score)", "setting": "[5]", "value": -0.337},
      {"measurement": "glycan array binding signal (z-score)", "setting": "[6]", "value": -0.39},
      {"measurement": "glycan array binding signal (z-score)", "setting": "[7]", "value": 0.26},
      {"measurement": "glycan array binding signal (z-score)", "setting": "[8]", "value": -0.457},
      {"measurement": "glycan array binding signal (z-score)", "setting": "[9]", "value": 1.42},
      {"measurement": "glycan array binding signal (z-score)", "setting": "[10]", "value": 0.571},
      {"measurement": "glycan array binding signal (z-score)", "setting": "Gal(b1-3)GlcNAc6S", "value": 0.982},
      {"measurement": "glycan array binding signal (z-score)", "setting": "[11]", "value": -0.349},
      {"measurement": "glycan array binding signal (z-score)", "setting": "[12]", "value": -0.362},
      {"measurement": "glycan array binding signal (z-score)", "setting": "[13]", "value": -0.06},
      {"measurement": "glycan array binding signal (z-score)", "setting": "[14]", "value": -0.403},
      {"measurement": "glycan array binding signal (z-score)", "setting": "[15]", "value": -0.357},
      {"measurement": "glycan array binding signal (z-score)", "setting": "[16]", "value": 2.08},
      {"measurement": "glycan array binding signal (z-score)", "setting": "[17]", "value": -0.259},
      {"measurement": "glycan array binding signal (z-score)", "setting": "[18]", "value": -0.36},
      {"measurement": "glycan array binding signal (z-score)", "setting": "[19]", "value": 0.844},
      {"measurement": "glycan array binding signal (z-score)", "setting": "[20]", "value": -0.305},
      {"measurement": "glycan array binding signal (z-score)", "setting": "Gal(b1-4)Gal", "value": -0.291},
      {"measurement": "glycan array binding signal (z-score)", "setting": "[21]", "value": -0.36},
      {"measurement": "glycan array binding signal (z-score)", "setting": "[22]", "value": -0.323},
      {"measurement": "glycan array binding signal (z-score)", "setting": "Gal(b1-4)Glc", "value": -0.373},
      {"measurement": "glycan array binding signal (z-score)", "setting": "Gal(b1-4)Glc6S", "value": 0.298},
      {"measurement": "glycan array binding signal (z-score)", "setting": "Gal(b1-4)GlcNAc", "value": -0.304},
      {"measurement": "glycan array binding signal (z-score)", "setting": "[23]", "value": -0.393},
      {"measurement": "glycan array binding signal (z-score)", "setting": "Gal(b1-4)GlcNAc(b1-2)Man", "value": -0.343},
      {"measurement": "glycan array binding signal (z-score)", "setting": "[24]", "value": -0.336},
      {"measurement": "glycan array binding signal (z-score)", "setting": "[25]", "value": -0.388},
      {"measurement": "glycan array binding signal (z-score)", "setting": "[26]", "value": -0.248},
      {"measurement": "glycan array binding signal (z-score)", "setting": "[27]", "value": 1.31},
      {"measurement": "glycan array binding signal (z-score)", "setting": "[28]", "value": -0.355},
      {"measurement": "glycan array binding signal (z-score)", "setting": "[29]", "value": 0.364},
      {"measurement": "glycan array binding signal (z-score)", "setting": "[30]", "value": 0.193},
      {"measurement": "glycan array binding signal (z-score)", "setting": "[31]", "value": -0.354},
      {"measurement": "glycan array binding signal (z-score)", "setting": "[32]", "value": 0.524}
    ]}
  ]
}
